Data on 2 molecules can be found in patent US20110212100A1, “METHODS FOR MODULATING DEVELOPMENT AND EXPANSION OF IL-17 EXPRESSING CELLS” (priority 2007, published 2011).

This assay has as its system Xbp-1 splicing / eIF2α phosphorylation in activated T cells. The assay can be described thus: Stress response pathway delineation (western blot, Xbp-1 splicing assay). To be noted: 4 hours; 10 nM HF or 1 μg/ml tunicamycin. As to the method:
FIG. 13A is an illustration depicting analysis of CD4^+ CD25^− T cells that were left unstimulated (TN), or were activated through the TCR for 4 hours in complete medium (complete—200 μM Cys/100 μM Met), medium lacking Cyst Met (Cys/Met) or complete medium containing 1 μg/ml tunicamycin, 10 nM HF or 10 nM MAZ1310. Western blotting was performed on whole cell extracts with the indicated antibodies. Xbp-1 splicing assay was performed on cDNA synthesized from T cell cultures.
A variety of other cellular stresses (ER stress, oxidative stress, viral infection) also result in eIF2α phosphorylation and ATF4 translation, a phenomenon termed the integrated stress response (ISR). (Harding, H. P. et al. An integrated stress response regulates amino acid metabolism and resistance to oxidative stress. Mol Cell 11, 619-33 (2003); and Harding, H. P. et al. Regulated translation initiation controls stress-induced gene expression in mammalian cells. Mol Cell 6, 1099-108 (2000)). Individual stressors, however, can also activate stress type-specific pathways. […]

As to `O=C(CC1NCCCC1O)Cn1cnc2cc(Br)c(Cl)cc2c1=O` (racemic) [HF, 7-bromo-6-chloro-3-[3-(3-hydroxy-2-piperidinyl)-2-oxopropyl]-4(3H)-quinazolinone], the “eIF2α phosphorylation, ATF4 expression and Xbp-1 splicing, in words” value is “inducing eIF2α phosphorylation without promoting Xbp-1 splicing”.

As to tunicamycin, the “eIF2α phosphorylation, ATF4 expression and Xbp-1 splicing, in words” value is “induced eIF2α phosphorylation and ATF4 expression together with Xbp-1 splicing”.
